Data: patent US9603878B2, “Probiotic and prebiotic compositions, and methods of use thereof for treatment and prevention of graft versus host disease” (Evelo Biosciences, Inc., priority 2014, dated 2017)

Tested on: C57BL/6 mice
Format: in vivo, mouse
Details: 0.25 g/L in drinking water day -7 to day -2; measured 2 days after a 5 day course (day 0)

In the case of `CCN1CCN(c2cc3c(cc2F)c(=O)c(C(=O)O)cn3C2CC2)CC1` [enro, enrofloxacin, reference compound], the “serum endotoxin levels after antibiotic treatment” value is reported as “led to an increase in serum endotoxin levels”.
